Data: patent publication EP4702992A1, “ANTIBODY-DRUG CONJUGATE” (priority 2023, dated 2024)

Legend:
[1] = DAR determination by reversed-phase chromatography; details: average drug loading per antibody
Experimental: The antibody sample was diluted to about 10 mg/mL with a suitable buffer (consistent with the sample buffer), and an appropriate amount of a reducing agent TCEP was added, with the number of equivalents adjusted according to a target DAR (8-10 equivalents for a target DAR of 8). The pH was then adjusted to 7-7.4 with a Tris buffer, and the antibody was reduced at room temperature for 1-1.5 h. The reduced intermediate state of the antibody could be monitored by CE-SDS. […] The conjugation reaction was performed at room temperature for about 30 min. After the conjugation was completed, the reaction liquid was first filtered, and then subjected to buffer exchange by ultrafiltration using a centrifugal concentration tube to remove excess linker-drug and other small-molecule impurities. After the purification was completed, the resulting sample was subjected to DAR determination by reversed-phase chromatography.
The concentration of the antibody trastuzumab was adjusted to 10 g/L using a phosphate buffer solution (pH 7.0), and the antibody solution after buffer exchange was placed into a centrifuge tube, followed by the addition of 8.0 equivalents of 5 mM TCEP (Adamas-beta, Ltd.). […] The average drug loading per antibody was determined by reversed-phase chromatography.
The concentration of the antibody farletuzumab or farletuzumab FcS was adjusted to 10 g/L using a phosphate buffer solution (pH 7.0), and the antibody solution after buffer exchange was placed into a centrifuge tube, followed by the addition of 7.0 equivalents of 5 mM TCEP (Adamas-beta, Ltd.). […] The average drug loading per antibody was determined by reversed-phase chromatography.
The concentration of the antibody 33B was adjusted to 10 g/L using a phosphate buffer solution (pH 7.0), and the antibody solution after buffer exchange was placed into a centrifuge tube, followed by the addition of 10.0 equivalents of 5 mM TCEP (Adamas-beta, Ltd.). […] The average drug loading per antibody was determined by reversed-phase chromatography. […]

[2] = biological target: T1, B7H3 antigen on A375 surface (Homo sapiens, UniProt Q5ZPR3); experiment: Determination of ADC affinities by FACS; assay type: binding; details: A375 cells, flow cytometry (MFI)
T1 construct: endogenous in cells; host or cells: A375
T1 sequence (Q5ZPR3 29-534): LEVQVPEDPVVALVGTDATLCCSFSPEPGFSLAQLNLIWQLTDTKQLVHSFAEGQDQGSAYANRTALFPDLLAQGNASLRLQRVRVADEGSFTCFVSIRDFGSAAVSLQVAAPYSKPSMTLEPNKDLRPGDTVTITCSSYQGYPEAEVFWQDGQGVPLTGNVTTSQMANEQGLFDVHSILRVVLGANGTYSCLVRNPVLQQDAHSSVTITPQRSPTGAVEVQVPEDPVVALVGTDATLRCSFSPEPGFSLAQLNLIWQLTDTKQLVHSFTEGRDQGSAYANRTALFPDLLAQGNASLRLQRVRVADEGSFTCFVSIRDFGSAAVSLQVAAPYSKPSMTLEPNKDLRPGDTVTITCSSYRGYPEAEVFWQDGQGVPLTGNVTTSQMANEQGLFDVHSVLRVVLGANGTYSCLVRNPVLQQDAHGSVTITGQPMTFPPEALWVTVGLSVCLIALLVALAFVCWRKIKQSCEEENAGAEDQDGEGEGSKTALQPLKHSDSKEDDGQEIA
Experimental: The affinities of B-ADC55-1-6, B-ADC2-1-6, B-ADC12-1-6, and DSADC were determined using the B7H3-positive human melanoma cell strain A375. Each sample was diluted to 15000 ng/mL with a PBS solution containing 2% BSA and then serially diluted across 11 gradients to achieve sample concentrations ranging from 0.014 ng/mL to 15000 ng/mL. A375 cells were taken, centrifuged at 500× g for 5 min, washed 3 times with a PBS solution containing 2% BSA, incubated with samples at different dilution concentrations at 4 °C for 2 h, further washed, and then incubated with the goat anti-human Alexa Fluor 488 fluorescent dye at 4 °C for 1 h in the dark. After washing, the cells were resuspended, and the mean fluorescence intensity (MFI) of the cells was measured using an Attune NxT flow cytometer (Thermo Fisher Scientific, Inc.). Table 26: Determination of affinities of ADCs for B7H3 antigen on A375 surface by flow cytometry

[3] = system: Hep3B xenograft tumor; experiment: Pharmacodynamic evaluation in Hep3B xenograft tumor mouse model; assay type: in vivo, nu/nu nude mice; details: 2 mg/kg, single injection; for Mean tumor volume (Day 0): Day 0 (day of grouping), mean ± standard error; for TGI(%): Day 22; for Mean tumor volume (Day 22): Day 22, mean ± standard error
From the text: (§1) Cells were taken from the B7H3-positive cell strain Hep3B and inoculated into the right forelimb axilla of nu/nu nude mice aged 4-6 weeks at 10^7 cells/mouse (6 mice per group). When the mean tumor volumes of the mice reached about 150 mm^3, the mice were randomly grouped and subjected to administration by a single injection. The day of grouping was defined as Day 0, and the administration was started on Day 0. After tumor grafting, the experimental animals were routinely monitored for tumor growth and the effect of treatment on the normal behavior, specifically the activity, food and water intake, body weight gain or loss (the body weight was measured twice a week), and abnormalities in eyes, fur, and other aspects. Calculation formula for tumor volume: Tumor volume (mm^3) = 1/2 × (a × b^2) (where a represents the long diameter, and b represents the short diameter). Table 27: Pharmacodynamic evaluation of test drugs in liver cancer xenograft Hep3B mouse model

[4] = system: A375 xenograft tumor; experiment: Pharmacodynamic evaluation in A375 xenograft tumor mouse model; assay type: in vivo, nu/nu nude mice; details: A375, 2 mg/kg, i.v., single administration, mean ± standard error; for Mean tumor volume (Day 0): Day 0 (day of grouping)
From the text: as §1, with “A375” for “Hep3B”, “(7” for “(6”, “130” for “150”, “administration.” for “administration by a single injection.”, “28: Grouping and administration regimen” for “27: Pharmacodynamic evaluation of test drugs in liver cancer xenograft Hep3B mouse model”

Molecule | DAR [1] | EC50 [2] [µg/mL] | Mean tumor volume (Day 0) [3] [mm^3] | TGI(%) [3] [%] | Mean tumor volume (Day 22) [3] [mm^3] | Mean tumor volume (Day 0) [4] [mm^3] | Mean tumor volume (Day 26) [4] [mm^3]
B-ADC55-1-6 (conjugate) heavy: QVQLVQSGAEVKKPGASVKVSCKASGYTFTDYFMNWVRQAPGQGLEWMGDVNPKTGSPSYNQKFKGRVTMTRDTSTSTVYMELSSLRSEDTAVYYCARRYGFLYSMDYWGQGTSVTVSSASTKGPSVFPLAPSSKSTSGGTAALGCLVKDYFPEPVTVSWNSGALTSGVHTFPAVLQSSGLYSLSSVVTVPSSSLGTQTYICNVNHKPSNTKVDKRVEPKSCDKTHTSPPCPAPEAAGGPSVFLFPPKPKDTLMISRTPEVTCVVVDVSHEDPEVKFNWYVDGVEVHNAKTKPREEQYNSTYRVVSVLTVLHQDWLNGKEYKCKVSNKALAASIEKTISKAKGQPREPQVYTLPPSREEMTKNQVSLTCLVKGFYPSDIAVEWESNGQPENNYKTTPPVLDSDGSFFLYSKLTVDKSRWQQGNVFSCSVMHEALHNHYTQKSLSLSPGK light: DIQMTQSPSSLSASVGDRVTITCRASQDISNYLNWYQQKPGKAVKVLIYYTSRLHSGVPSRFSGSGSGTDFTFTISSLQPEDIATYYCQQGNTHPFTFGGGTKVEIKRTVAAPSVFIFPPSDEQLKSGTASVVCLLNNFYPREAKVQWKVDNALQSGNSQESVTEQDSKDSTYSLSSTLTLSKADYEKHKVYACEVTHQGLSSPVTKSFNRGEC | 5.7 | 0.03778 | 153.0±57.1 | 66.5 | 917.5±405.8 | 128.9±39.0 | 144.6±90.1
B-ADC2-1-6 (conjugate) heavy: QVQLVQSGAEVKKPGASVKVSCKASGYTFTDYFMNWVRQAPGQGLEWMGDVNPKTGSPSYNQKFKGRVTMTRDTSTSTVYMELSSLRSEDTAVYYCARRYGFLYSMDYWGQGTSVTVSSASTKGPSVFPLAPSSKSTSGGTAALGCLVKDYFPEPVTVSWNSGALTSGVHTFPAVLQSSGLYSLSSVVTVPSSSLGTQTYICNVNHKPSNTKVDKRVEPKSCDKTHTSPPCPAPEAAGGPSVFLFPPKPKDTLMISRTPEVTCVVVDVSHEDPEVKFNWYVDGVEVHNAKTKPREEQYNSTYRVVSVLTVLHQDWLNGKEYKCKVSNKALAASIEKTISKAKGQPREPQVYTLPPSREEMTKNQVSLTCLVKGFYPSDIAVEWESNGQPENNYKTTPPVLDSDGSFFLYSKLTVDKSRWQQGNVFSCSVMHEALHNHYTQKSLSLSPGK light: DIQMTQSPSSLSASVGDRVTITCRASQDISNYLNWYQQKPGKAVKVLIYYTSRLHSGVPSRFSGSGSGTDFTFTISSLQPEDIATYYCQQGNTHPFTFGGGTKVEIKRTVAAPSVFIFPPSDEQLKSGTASVVCLLNNFYPREAKVQWKVDNALQSGNSQESVTEQDSKDSTYSLSSTLTLSKADYEKHKVYACEVTHQGLSSPVTKSFNRGEC | 5.6 | 0.04161 | 152.5±52.7 | 56.8 | 1138.2±856.6 | 129.8±38.3 | 346.4±144.3
B-ADC12-1-6 (conjugate) heavy: QVQLVQSGAEVKKPGASVKVSCKASGYTFTDYFMNWVRQAPGQGLEWMGDVNPKTGSPSYNQKFKGRVTMTRDTSTSTVYMELSSLRSEDTAVYYCARRYGFLYSMDYWGQGTSVTVSSASTKGPSVFPLAPSSKSTSGGTAALGCLVKDYFPEPVTVSWNSGALTSGVHTFPAVLQSSGLYSLSSVVTVPSSSLGTQTYICNVNHKPSNTKVDKRVEPKSCDKTHTSPPCPAPEAAGGPSVFLFPPKPKDTLMISRTPEVTCVVVDVSHEDPEVKFNWYVDGVEVHNAKTKPREEQYNSTYRVVSVLTVLHQDWLNGKEYKCKVSNKALAASIEKTISKAKGQPREPQVYTLPPSREEMTKNQVSLTCLVKGFYPSDIAVEWESNGQPENNYKTTPPVLDSDGSFFLYSKLTVDKSRWQQGNVFSCSVMHEALHNHYTQKSLSLSPGK light: DIQMTQSPSSLSASVGDRVTITCRASQDISNYLNWYQQKPGKAVKVLIYYTSRLHSGVPSRFSGSGSGTDFTFTISSLQPEDIATYYCQQGNTHPFTFGGGTKVEIKRTVAAPSVFIFPPSDEQLKSGTASVVCLLNNFYPREAKVQWKVDNALQSGNSQESVTEQDSKDSTYSLSSTLTLSKADYEKHKVYACEVTHQGLSSPVTKSFNRGEC | 6.0 | 0.04001 | 153.0±58.6 | 69.6 | 847.7±384.0 | 128.3±29.1 | 177.1±132.2
